Assay results as given in PubChem BioAssay (Tox21).
The shares of active, inactive and inconclusive entries below differ from those in the screen. For some assays here: Potencies of inconclusive entries are doubtful fits and often do not repeat. The source made the active and inactive calls. Unless noted, calls come from the whole dose curve; as a rule, active = well fitted cell-killing curve with a large enough effect in the repeat runs (not every such curve was filed as active); inconclusive = weak or mixed curves, or effect the other way; inactive = no such curve, though single readings can be large or run the other way.

Tests used:
[1] = qHTS assay to identify small molecule antagonists of the estrogen related receptor signaling pathway with the pleiotropic PPARgamma coactivator (PGC) from Tox21 10K library - cell viability counter screen (AID 1224840); conditions: PGC/ERR reporter cells viability, CellTiter-Fluor, 17.5 h; series mostly up to 92.4 µM; note: nearly all actives have a fitted effect of over 40% in size; note: potency is the fitted concentration of half-maximal effect
Outline: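 Multiplexed viability counter screen in the PGC/ERR cell line: cells treated with DMSO-dissolved compounds for 17.5 hours at 37 C, then viability measured as CellTiter-Fluor fluorescence.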

[2] = qHTS assay to identify small molecule agonists of the hypoxia (HIF-1) signaling pathway - cell viability counter screen (AID 1224844; calls by dose curve; note: potency is the fitted concentration of half-maximal effect; nearly all actives have a fitted effect of over 50% in size); conditions: HRE-bla ME-180 viability, CellTiter-Glo luminescence, 17 h; series mostly up to 76.8 µM
Outline: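 Cytotoxicity was measured in parallel with the HRE-driven beta-lactamase readout: after 17 hrs of compound exposure at 37C, HRE-bla ME-180 cells received CellTiter-Glo and luminescence was recorded 30 min later.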

[3] = qHTS assay to identify small molecule agonists of H2AX (AID 1224845; active = well fitted activation curve with a large enough effect in the signal ratio in the repeat runs, not every such curve was filed as active; inconclusive = weak or mixed curves; the % refers to the signal ratio; note: potency is the fitted concentration of half-maximal effect); conditions: CHO-K1 phospho-H2AX Ser139 HTRF, 3 h; activation (H2AX phosphorylation): at 154 µM (top of the series) unless noted
Outline: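 Wild-type CHO-K1 cells plated overnight, then exposed 3 hr at 37C to compounds at 15 concentrations (0.76% DMSO). Lysed, then HTRF anti-pH2AX(S139)-cryptate/anti-H2AX-d2 detection after 24 hr at room temperature; emissions 665 and 620 nm.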

[4] = target: Thyrotropin receptor (Homo sapiens) (UniProt P16473); test: qHTS assay to identify small molecule agonists of the thyroid stimulating hormone receptor (TSHR) signaling pathway (AID 1224843; calls by dose curve; note: % is set by controls: 0 for no effect and ±100 for the full control effect; nearly all actives have a fitted effect of over 45% in size); conditions: TSHR-HEK293 cells, cAMP HTRF, agonist mode, 30 min; activation: at 92.4 µM (top of the series) unless noted
Sequence of UniProt P16473 (P16473 whole entry, looked up): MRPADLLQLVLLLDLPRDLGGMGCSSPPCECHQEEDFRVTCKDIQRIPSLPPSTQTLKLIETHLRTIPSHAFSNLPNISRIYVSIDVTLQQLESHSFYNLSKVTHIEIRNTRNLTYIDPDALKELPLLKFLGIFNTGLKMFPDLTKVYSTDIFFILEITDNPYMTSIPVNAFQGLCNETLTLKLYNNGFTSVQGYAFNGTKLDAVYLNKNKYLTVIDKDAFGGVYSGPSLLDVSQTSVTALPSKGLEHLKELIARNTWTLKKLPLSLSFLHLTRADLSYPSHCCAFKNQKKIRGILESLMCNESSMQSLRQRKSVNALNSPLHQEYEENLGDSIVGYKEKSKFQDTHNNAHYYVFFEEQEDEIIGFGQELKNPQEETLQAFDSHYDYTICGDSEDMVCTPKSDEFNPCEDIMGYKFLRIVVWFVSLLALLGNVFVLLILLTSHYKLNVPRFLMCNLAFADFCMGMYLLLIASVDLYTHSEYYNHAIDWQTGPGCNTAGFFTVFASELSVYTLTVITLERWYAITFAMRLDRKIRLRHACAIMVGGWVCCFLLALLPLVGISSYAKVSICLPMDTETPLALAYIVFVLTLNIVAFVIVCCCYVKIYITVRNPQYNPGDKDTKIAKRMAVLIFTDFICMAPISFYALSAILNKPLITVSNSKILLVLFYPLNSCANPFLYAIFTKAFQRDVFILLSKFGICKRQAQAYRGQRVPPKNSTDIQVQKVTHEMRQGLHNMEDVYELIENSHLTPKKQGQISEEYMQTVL
Outline: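 Compounds are titrated over 15 concentrations, in triplicate, onto TSHR-HEK293 cells seeded at 800/well. Plates sit 30 min at room temperature before cAMP-d2 and anti-cAMP cryptate are added; signal is read after a further hour.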

[5] = qHTS assay to identify small molecule antagonists of the estrogen related receptor signaling pathway with the pleiotropic PPARgamma coactivator (PGC) from Tox21 10K library (AID 1224841; call rule not given here; note: actives are mostly falling curves and most rising ones were filed inactive; nearly all actives have a fitted effect of over 50% in size; note: potency is the fitted concentration of half-maximal effect); conditions: PGC/ERR reporter cell line, ONE-Glo luciferase, 18 h; series mostly up to 92.4 µM
Outline: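 Steps: plate 2,000 PGC/ERR cells per well; incubate 6 h at 37 C with 5% CO2; transfer compounds from DMSO stocks by pin tool; incubate 18 h at 37 C; add One-Glo; measure luminescence 30 min later.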
Tags give direction and shape of the fitted curve or compound fluorescence and quenching.

Compound: NNc1nc(-c2ccccc2)cs1
- Potency [1]: inconclusive: 19.9 µM [cytotoxic, full curve]
- Potency [2]: inconclusive: 44.9 µM [cytotoxic]
- Potency [3]: inconclusive: 104 µM [falling, single point]

Compound: CCCCC/C=C\C/C=C\CCCCCCCC(=O)OC
- Potency [1]: inconclusive: 68.6 µM [cytotoxic, single point]
- Potency [3]: inconclusive: 113 µM [activator, single point]

Compound: O=C(Oc1ccccc1)c1ccccc1C(=O)Oc1ccccc1
- Potency [1]: inconclusive: 54.5 µM [cytotoxic, single point]

Compound: Nc1c(S(=O)(=O)O)cc(Br)c2c1C(=O)c1ccccc1C2=O
- Potency [1]: inconclusive: 21.7 µM [cytotoxic, full curve]
- activation [4]: inconclusive: -35.1%

Compound: C(=C\c1ccccc1)/CN1CCN(C(c2ccccc2)c2ccccc2)CC1
- Potency [1]: inactive
- Potency [3]: inconclusive: 61.9 µM [activator, single point]

Compound: CCCCC(=O)O[C@]1(C(=O)CO)[C@@H](C)C[C@H]2[C@@H]3CCC4=CC(=O)C=C[C@]4(C)[C@@]3(F)[C@@H](O)C[C@@]21C
- Potency [1]: inconclusive: 61.1 µM [cytotoxic, partial curve, poor fit]
- Potency [5]: inconclusive: 61.1 µM [falling, single point]
- activation [4]: inconclusive: -37.9%
- Potency [3]: active: 113 µM

Compound: CC(C)CC(C)CC(O)CC(C)C (configuration not stated)
- Potency [5]: inconclusive: 70.3 µM [falling, single point]

Compound: C/C=C/C=C/C=O
- Potency [5]: inactive

Compound: CCCCc1ccc2cccc(S(=O)(=O)O)c2c1
- Potency [5]: inactive
